Assay [1] has as its target T1, Fc-fused recombinant human TrkA (human, UniProt P04629-2 33-407, limits assumed).
T1 construct: Bought from R&D Systems or made in-house; not shown: Fc part
As to the kind of experiment: SPR (Biacore 3000), dissociation half-life. Here is the method: (§1) A standard amine-coupling protocol was used in HBS-EP running buffer at 5 μl/min and involved three steps. […]. First, flow cells were activated with a 7-minute injection of a freshly prepared mixture of 200 mM EDC in 50 mM NHS; this step converted the chip's carboxylic acid groups to reactive esters. Next, receptors were diluted to ˜10 μg/mL in 10 mM sodium acetate buffer at pH 4.5 and coupled to the chip until the desired level had been reached. Finally, excess reactive esters were blocked with a 7-minute injection of 1M sodium ethanolamine-HCl (pH 8.5).
(§2) The Fab fragment of antibody 200.38B8 (38B8) was diluted from 0.7-480 nM in 3-fold increments. Samples were injected for 30 seconds at 100 μl/min allowing dissociation times of up to 10 mins. After each binding cycle, receptor surfaces were regenerated with a mildly acidic cocktail (10 mM glycine-HCl (pH 4.0), 500 mM NaCl, and 20 mM EDTA). […] Kinetic rate constants (kon and koff) were determined by fitting the binding data globally to a mass transport model and binding affinities were calculated from their ratio, KD=koff/kon.
Background: SPR reads the build-up and loss of mass on a sensor chip optically.

The target in assay [2] is T2, Fc-fused recombinant human TrkC (human, UniProt Q16288 32-429).
T2 construct: Bought from R&D Systems or made in-house; not shown: Fc part
As to the kind of experiment: SPR (Biacore 3000), Fc-fused receptor amine-coupled to CM5 chip, ligand in solution, 25 C. Here is the method:
as §1, §2

The target of assay [3] is T3, human TrkB-Fc fusion protein (human, UniProt Q16620 fragment).
T3 construct: Bought from R&D Systems or made in-house; also called HuTrkB; Fc-fused recombinant human TrkB; not shown: Fc part
The assay is described as above. Here is the method: as §1, §2

The target of assay [4] is T1, Fc-fused recombinant human TrkA. Described as above. Here is the method: as §1, §2

The Kd is a measure of binding affinity in units of concentration. What is called koff is the rate constant with which the complex falls apart. The kon is a measure of how fast the partners come together.

T1 sequence (P04629 other isoform, or with tags, fused parts or gaps limits assumed): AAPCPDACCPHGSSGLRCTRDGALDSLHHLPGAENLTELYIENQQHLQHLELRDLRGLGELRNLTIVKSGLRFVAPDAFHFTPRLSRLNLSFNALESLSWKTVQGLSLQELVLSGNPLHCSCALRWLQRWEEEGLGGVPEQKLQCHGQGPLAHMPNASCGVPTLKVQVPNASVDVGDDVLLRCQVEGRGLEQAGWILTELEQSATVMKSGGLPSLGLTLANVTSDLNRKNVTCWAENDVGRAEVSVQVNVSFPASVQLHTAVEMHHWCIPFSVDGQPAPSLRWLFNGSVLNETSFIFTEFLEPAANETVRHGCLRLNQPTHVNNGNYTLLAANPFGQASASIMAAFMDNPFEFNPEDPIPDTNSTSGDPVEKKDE
T3 sequence (Q16620 32-430 limits assumed): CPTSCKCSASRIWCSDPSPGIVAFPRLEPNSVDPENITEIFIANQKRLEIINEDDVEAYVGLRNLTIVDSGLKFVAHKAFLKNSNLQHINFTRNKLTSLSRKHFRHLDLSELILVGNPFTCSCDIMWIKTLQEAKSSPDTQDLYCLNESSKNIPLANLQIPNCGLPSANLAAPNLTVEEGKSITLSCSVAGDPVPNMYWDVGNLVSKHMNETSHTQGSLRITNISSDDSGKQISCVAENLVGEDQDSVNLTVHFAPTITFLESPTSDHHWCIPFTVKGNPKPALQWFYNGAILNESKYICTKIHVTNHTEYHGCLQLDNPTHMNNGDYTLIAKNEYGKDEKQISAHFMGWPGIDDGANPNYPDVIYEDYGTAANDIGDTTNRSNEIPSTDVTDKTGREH

B1: ProNGF (ligand)
chain: not shown
Regarding B1, the T1/2 in assay [1] is greater than 1 h. In addition, in assay [2], the binding result is on record as “no binding”. For the same molecule, the binding result in assay [3] is “no binding”. Further, in assay [4], the Kd was determined as 0.02 nM, the off-rate (koff) came to 1.41e-05 s⁻¹ and the on-rate (kon) is 716000 M⁻¹ s⁻¹.

For the origin of these results see US20100086997A1 (published 2010).
